The list shows a part of the results. Values were computed here from the reads of four pooled replicates and scatter widely.
The sequences below were run against T1, Pho4 (S. cerevisiae) (UniProt P07270) (assay: relative binding free energy (BET-seq); higher = weaker binding). Conditions: reference: library average.
T1 sequence: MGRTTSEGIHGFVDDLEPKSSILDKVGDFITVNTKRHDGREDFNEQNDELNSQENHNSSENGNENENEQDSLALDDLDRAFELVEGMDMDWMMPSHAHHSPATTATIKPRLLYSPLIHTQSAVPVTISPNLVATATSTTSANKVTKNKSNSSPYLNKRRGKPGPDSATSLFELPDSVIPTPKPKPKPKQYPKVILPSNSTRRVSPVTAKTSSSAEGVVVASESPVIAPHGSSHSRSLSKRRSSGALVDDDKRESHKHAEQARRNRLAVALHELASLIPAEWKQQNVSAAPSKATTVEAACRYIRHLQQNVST

Sequence | relative binding free energy
CAGGCCACGTGTGGTT | -0.02 kcal/mol
TCTGTCACGTGTGATT | 0.17 kcal/mol
GGGCGCACGTGTGAAT | -0.01 kcal/mol
ATTTACACGTGTGCAT | 0.04 kcal/mol
CTTCGCACGTGGTTTA | -0.07 kcal/mol
GTCGTCACGTGGTAGC | 0.17 kcal/mol
TAAGACACGTGGGGTT | -0.08 kcal/mol
GGTGTCACGTGATCAT | 0.2 kcal/mol
ACAGGCACGTGGGGGT | -0.3 kcal/mol
TTGGTCACGTGCTGGC | 0.06 kcal/mol
TAGTCCACGTGGGTGT | -0.17 kcal/mol
GTCTTCACGTGGGTGA | 0.1 kcal/mol
TCTAGCACGTGAATGT | 0.22 kcal/mol
GCGGCCACGTGGCGGG | -0.15 kcal/mol
TTTGTCACGTGTTCTC | 0 kcal/mol
ATTTCCACGTGGGGTA | -0.16 kcal/mol
AATTACACGTGATTGA | 0.28 kcal/mol
GTCGGCACGTGAGGGT | 0.16 kcal/mol
ACGTTCACGTGAAGGT | 0.31 kcal/mol
CCGGTCACGTGAGGGG | 0.2 kcal/mol
CGGGCCACGTGTGCGG | -0.11 kcal/mol
CGTTTCACGTGGAGGC | 0.27 kcal/mol
TTGAGCACGTGCCGGG | -0.11 kcal/mol
CGGAGCACGTGAGTTT | 0.15 kcal/mol
TGCGTCACGTGGATTG | 0.1 kcal/mol

Sequence | relative binding free energy
GAGTGCACGTGATTTT | 0.25 kcal/mol
CTTAGCACGTGAGAGG | 0.11 kcal/mol
GGGAGCACGTGGCAAG | -0.22 kcal/mol
TTTTTCACGTGGATGG | 0.33 kcal/mol
CGTTTCACGTGGGGCG | 0.28 kcal/mol
ATGATCACGTGACGGG | 0.22 kcal/mol
GCATTCACGTGTGTTT | 0.34 kcal/mol
ATGTGCACGTGCATAG | -0.06 kcal/mol
TATGTCACGTGGGGGC | -0.02 kcal/mol
TTATGCACGTGTGCGT | 0.05 kcal/mol
AGTTTCACGTGTACAG | 0.23 kcal/mol
ATACTCACGTGGTGAT | 0.18 kcal/mol
GGTCGCACGTGGTTGT | -0.13 kcal/mol
TGATTCACGTGCGTAT | 0.25 kcal/mol
CTTGGCACGTGGAGAG | -0.03 kcal/mol
TTCTACACGTGGTTAG | 0.09 kcal/mol
AAAGTCACGTGGCTTT | 0.07 kcal/mol
AAGTGCACGTGAATGG | 0.2 kcal/mol
CTTGTCACGTGTTCAG | 0.13 kcal/mol
AGACTCACGTGGGGGA | 0.14 kcal/mol
TATTACACGTGATAGA | 0.21 kcal/mol
GGATGCACGTGTTGTA | 0.02 kcal/mol
ACTGTCACGTGGGTAT | -0.05 kcal/mol
TGGTGCACGTGTTGAC | -0.07 kcal/mol
ATATTCACGTGTGTGC | 0.2 kcal/mol

Sequence | relative binding free energy
ATGGGCACGTGATTAA | 0 kcal/mol
AGGTGCACGTGGCCAG | -0.09 kcal/mol
TCTTACACGTGTATAG | 0.21 kcal/mol
ATCGTCACGTGAGTGC | 0.28 kcal/mol
AGGTTCACGTGGAGCA | 0.42 kcal/mol
TTAAACACGTGAGTAA | 0.28 kcal/mol
GGTGACACGTGATGGC | 0.26 kcal/mol
CATTTCACGTGATTGT | 0.2 kcal/mol
AGGTTCACGTGCGTGT | 0.21 kcal/mol
ATCGTCACGTGTTTTG | 0.16 kcal/mol
TGTTGCACGTGGTCTT | -0.19 kcal/mol
ATAATCACGTGTGTCT | 0.2 kcal/mol
CGGGACACGTGAAGTG | 0.24 kcal/mol
TTGTACACGTGCGTAA | 0.08 kcal/mol
AGGGACACGTGGAGAA | 0.13 kcal/mol
GGTCTCACGTGTATGG | 0.16 kcal/mol
AGGGTCACGTGGAGCA | 0.11 kcal/mol
TAATGCACGTGTGCTG | -0.01 kcal/mol
GTGTACACGTGGGGCG | 0.04 kcal/mol
GAGATCACGTGTGGGA | 0.24 kcal/mol
TAACGCACGTGTTTGT | -0.15 kcal/mol
TGATTCACGTGTTGAT | 0.2 kcal/mol
AAGGTCACGTGAATTA | 0.26 kcal/mol
CTTTTCACGTGGTGAT | 0.32 kcal/mol
TAGCACACGTGTTTTG | -0.05 kcal/mol

Sequence | relative binding free energy
GTAGGCACGTGGGGAA | -0.17 kcal/mol
ATTTACACGTGAGTGA | 0.14 kcal/mol
ACTTACACGTGAGGGT | 0.35 kcal/mol
GACAGCACGTGGGGTA | -0.23 kcal/mol
GGGCCCACGTGGTAGT | -0.05 kcal/mol
GGGGACACGTGGGGCC | -0.09 kcal/mol
TCGAGCACGTGTGCGT | -0.11 kcal/mol
GAATGCACGTGGGATT | 0.09 kcal/mol
ACGTACACGTGGGGTG | -0.19 kcal/mol
TAACACACGTGGGTGT | -0.1 kcal/mol
GAGGACACGTGTGTAG | 0.07 kcal/mol
GGCTTCACGTGGCGAG | 0.29 kcal/mol
ATGGGCACGTGCGGAC | -0.16 kcal/mol
AGGATCACGTGTAGGA | 0.06 kcal/mol
CAGATCACGTGGTATG | 0.05 kcal/mol
TTTCACACGTGAGGCG | 0.28 kcal/mol
GGAATCACGTGTAGAA | 0.35 kcal/mol
TAGGACACGTGGGACT | -0.04 kcal/mol
TTGATCACGTGTATTT | 0.14 kcal/mol
TTACGCACGTGGGGGT | -0.23 kcal/mol
TATATCACGTGCGGGT | 0.09 kcal/mol
TTTTACACGTGCGGTC | 0.16 kcal/mol
GTCTACACGTGGTATT | 0.09 kcal/mol
TACTGCACGTGGTGGA | 0.03 kcal/mol
AGGTTCACGTGTGCGC | 0.22 kcal/mol

Sequence | relative binding free energy
AGCTTCACGTGAGGTT | 0.32 kcal/mol
AGGGGCACGTGACGGT | -0.03 kcal/mol
GCTGGCACGTGTGTCG | -0.1 kcal/mol
TGTGGCACGTGCATTT | -0.14 kcal/mol
TTGCTCACGTGAACGG | 0.43 kcal/mol
TAAATCACGTGTTCGT | 0.13 kcal/mol
TGTGGCACGTGTGGGG | 0.04 kcal/mol
ATGCGCACGTGGAGTT | -0.03 kcal/mol
CGTATCACGTGTAGTG | 0.03 kcal/mol
AGGGGCACGTGCCGAG | -0.2 kcal/mol
TGGTACACGTGTGGGG | 0.12 kcal/mol
GGTTGCACGTGAAAGA | 0.26 kcal/mol
GGCTACACGTGGCAGG | 0.18 kcal/mol
TGTCTCACGTGGAATG | 0.15 kcal/mol
GAGATCACGTGAGGGA | 0.38 kcal/mol
GTAGGCACGTGGAGAT | -0.07 kcal/mol
GATCTCACGTGTGTTT | 0.39 kcal/mol
TAGCGCACGTGTGAAT | 0.09 kcal/mol
TAAATCACGTGGGTTT | -0.04 kcal/mol
TGAGGCACGTGTTTTT | -0.01 kcal/mol
TAGTGCACGTGCTGGG | -0.13 kcal/mol
TGTGGCACGTGGTCTG | -0.14 kcal/mol
ATAGGCACGTGAATGT | -0.05 kcal/mol
TGTCACACGTGGTAAA | 0.11 kcal/mol
AGTCTCACGTGTGGAA | 0.29 kcal/mol

Sequence | relative binding free energy
TGAAACACGTGTATGT | 0.04 kcal/mol
TGGGCCACGTGGTCGT | -0.21 kcal/mol
TTGTCCACGTGTATAG | 0.03 kcal/mol
TAGTACACGTGTTCAT | 0.16 kcal/mol
ATCGTCACGTGGGTAT | -0.03 kcal/mol
TTCCACACGTGGTTTG | 0.14 kcal/mol
GTAGTCACGTGGTTCT | 0.02 kcal/mol
GTATCCACGTGGGGAG | -0.05 kcal/mol
GCTAACACGTGGTGGT | 0.05 kcal/mol
TGAGACACGTGTTCGG | -0.05 kcal/mol
GTACGCACGTGGGTGG | -0.21 kcal/mol
GACGGCACGTGAGGCG | 0.13 kcal/mol
TTGGGCACGTGGTACG | -0.25 kcal/mol
GCTATCACGTGTGGGT | 0.15 kcal/mol
TGCATCACGTGAGGGT | 0.29 kcal/mol
TGGAGCACGTGATGTC | 0.13 kcal/mol
TAATTCACGTGTCGGC | 0.39 kcal/mol
CGAGTCACGTGTGTTA | 0.06 kcal/mol
GTATGCACGTGGTGAC | -0.1 kcal/mol
GGACTCACGTGGGTTA | 0.1 kcal/mol
TGGTGCACGTGTAAAT | 0.19 kcal/mol

— the BET-seq Pho4 binding data (Le et al. 2018)
